According to paper PMC4710663:
These are yes or no findings as the source states them, for the method shown. In cells and extracts the contact can be indirect. Some entries that bind do so weakly or less than the wild type. Where a sequence is shown, tags or fusion partners need not be part of it.

B1: (A188-321)-ECFP (domain or fragment, UniProt Q96SQ7-1 188-321)
chain: GESSYSSISHVIYNNHQDSSASPRKRPGEATAASSEIKALQQTRRLLANARERTRVHTISAAFEALRKQVPCYSYGQKLSKLAILRIACNYILSLARLADLDYSADHSNLSFSECVQRCTRTLQAEGRAKKRKE
B2: (A1-190)-ECFP (domain or fragment, UniProt Q96SQ7-1 1-190)
chain: MKHIPVLEDGPWKTVCVKELNGLKKLKRKGKEPARRANGYKTFRLDLEAPEPRAVATNGLRDRTHRLQPVPVPVPVPVPVAPAVPPRGGTDTAGERGGSRAPEVSDARKRCFALGAVGPGLPTPPPPPPPAPQSQAPGGPEAQPFREPGLRPRILLCAPPARPAPSAPPAPPAPPESTVRPAPPTRPGES
B3: (A225-321)-ECFP (domain or fragment, UniProt Q96SQ7-1 225-321)
chain: KALQQTRRLLANARERTRVHTISAAFEALRKQVPCYSYGQKLSKLAILRIACNYILSLARLADLDYSADHSNLSFSECVQRCTRTLQAEGRAKKRKE
B4: ATOH8-ECFP fusion protein (protein, UniProt Q96SQ7-1 1-321)
chain: MKHIPVLEDGPWKTVCVKELNGLKKLKRKGKEPARRANGYKTFRLDLEAPEPRAVATNGLRDRTHRLQPVPVPVPVPVPVAPAVPPRGGTDTAGERGGSRAPEVSDARKRCFALGAVGPGLPTPPPPPPPAPQSQAPGGPEAQPFREPGLRPRILLCAPPARPAPSAPPAPPAPPESTVRPAPPTRPGESSYSSISHVIYNNHQDSSASPRKRPGEATAASSEIKALQQTRRLLANARERTRVHTISAAFEALRKQVPCYSYGQKLSKLAILRIACNYILSLARLADLDYSADHSNLSFSECVQRCTRTLQAEGRAKKRKE
B5: (A1-230)-ECFP (domain or fragment, UniProt Q96SQ7-1 1-230)
chain: MKHIPVLEDGPWKTVCVKELNGLKKLKRKGKEPARRANGYKTFRLDLEAPEPRAVATNGLRDRTHRLQPVPVPVPVPVPVAPAVPPRGGTDTAGERGGSRAPEVSDARKRCFALGAVGPGLPTPPPPPPPAPQSQAPGGPEAQPFREPGLRPRILLCAPPARPAPSAPPAPPAPPESTVRPAPPTRPGESSYSSISHVIYNNHQDSSASPRKRPGEATAASSEIKALQQT
B6: (A1-92)-ECFP (domain or fragment, UniProt Q96SQ7-1 1-92)
chain: MKHIPVLEDGPWKTVCVKELNGLKKLKRKGKEPARRANGYKTFRLDLEAPEPRAVATNGLRDRTHRLQPVPVPVPVPVPVAPAVPPRGGTDT
B7: (A225-275)-ECFP (domain or fragment, UniProt Q96SQ7-1 225-275)
chain: KALQQTRRLLANARERTRVHTISAAFEALRKQVPCYSYGQKLSKLAILRIA
B8: (A1-55)-ECFP (domain or fragment, UniProt Q96SQ7-1 1-55)
chain: MKHIPVLEDGPWKTVCVKELNGLKKLKRKGKEPARRANGYKTFRLDLEAPEPRAV
B9: (A90-190)-ECFP (domain or fragment, UniProt Q96SQ7-1 90-190)
chain: TDTAGERGGSRAPEVSDARKRCFALGAVGPGLPTPPPPPPPAPQSQAPGGPEAQPFREPGLRPRILLCAPPARPAPSAPPAPPAPPESTVRPAPPTRPGES

molecular target: GST-(P1-401) (human) (UniProt P16298); assay: pull-down; GST fusion protein on glutathione beads as bait, incubated with lysate of Cos7 or HEK293T cells expressing the ECFP or EYFP fusion protein, 2-4 h at 4 °C; Western blot with EGFP antibody; only the target purified

Binder | binding
B1 | binds
B2 | binds
B3 | binds
B4 | binds
B5 | binds

molecular target: GST-(P355-525) (human) (UniProt P16298); assay: as above

Binder | binding
B1 | no binding
B4 | no binding
B5 | no binding

molecular target: GST-(P81-401) (human) (UniProt P16298); assay: as above

Binder | binding
B2 | binds
B3 | binds
B6 | binds
B7 | binds
B8 | binds
B9 | no binding
ERTRVHTISAAFEALRKQVPCYSYGQKLSKLAILRIA (domain or fragment, UniProt Q96SQ7-1 239-275) [(A239-275)-ECFP] | no binding

molecular target: GST-PPP3CB fusion protein (human) (UniProt P16298); assay: as above

Binder | binding
B1 | binds
B5 | binds
